Test results: patent US11807625B2, “Capsid inhibitors for the prevention of HIV” (Gilead Sciences, Inc., priority 2019, dated 2023)
Several values for one entry are separate records, joined by “and”; a condition that tells them apart may be missing. Equal values may be shown once. Further values from the same series stand in other lists.

Assay: PK of compound of Formula (Ia) after single subcutaneous dose of solution formulations in Wistar Han rats
Type: in vivo
Details: SC 50 mg/kg
Experimental: Formulations containing the compound of Formula (Ia), or a pharmaceutically acceptable salt thereof, were prepared as solutions and optionally administered subcutaneously or intramuscularly to rats, rabbits, and/or dogs.
(§1) A solution of about 400 mg/mL of the compound of Formula (Ia) having 19.14 w/w % water, 40.66 w/w % PEG 300, 35.20 w/w % of a sodium salt of a compound of Formula (Ia), and 5.00% ethanol was prepared. The solution was administered subcutaneously to male Wistar Han rats at a dose level of about 50 mg/kg and dose volume of 0.125 mL/kg and the pharmacokinetic (PK) profile was determined.
as §1, with “500” for “400”, “16.64” for “19.14”, “35.36” for “40.66”, “43.00” for “35.20”, “0.1” for “0.125”
(§2) A solution of about 400 mg/mL of the compound of Formula (Ia) having 17.00 w/w % water, 36.40 w/w % PEG 300, 35.20 w/w % of a sodium salt of a compound of Formula (Ia), 5.00 w/w % ethanol, and 6.40 w/w % poloxamer 188 was prepared. The solution was administered subcutaneously to male beagle dogs at a dose level of about 12 mg/kg and male Wistar Han rats at a dose level of about 50 mg/kg. The pharmacokinetic profiles were determined, and the results for dogs are summarized in Table and Table, while the results for rats are summarized in Table and Table below.
as §2, with “500” for “400”, “14.06” for “17.00”, “30.12” for “36.40”
A solution of about 300 mg/mL of the compound of Formula (Ia) having 23.33 w/w % water, 48.99 w/w % PEG 300, 26.47 w/w % of a sodium salt of a compound of Formula (Ia), and 1.21 w/w % poloxamer 188 was prepared. The solution was administered subcutaneously to male beagle dogs at a dose level of about 6 mg/kg and male Wistar Han rats at a dose level of about 50 mg/kg. The pharmacokinetic profiles were determined, and the results for dogs are summarized in Table and Table, while the results for rats are summarized in Table and Table below.
as §2, with “18.80” for “17.00”, “40.25” for “36.40”, “34.38” for “35.20”, “1.57” for “6.40”
as §2, with “500” for “400”, “16.29” for “17.00”, “34.88” for “36.40”, “41.92” for “35.20”, “1.91” for “6.40”
A solution of about 400 mg/mL of the compound of Formula (Ia) having 20.90 w/w % water, 44.72 w/w % PEG 300, and 34.38 w/w % of a sodium salt of a compound of Formula (Ia) was prepared. […]

- Plasma concentration (6048 h, individual rats, solution S, 500 mg/mL): 32.6 nM and 75.5 nM and 27.0 nM
- Plasma concentration (6720 h, individual rats, solution S, 500 mg/mL): 24.0 nM and 64.9 nM and 22.0 nM
- Plasma concentration (7392 h, individual rats, solution S, 500 mg/mL): 13.8 nM and 56.8 nM and 17.5 nM
- Plasma concentration (8064 h, individual rats, solution S, 500 mg/mL): 10.4 nM and 49.5 nM and 14.5 nM
- Plasma concentration (Wistar Han rats, 400 mg/mL solution AA (6.25% poloxamer 188), 1.00 h, animals #1-#4): 36.7 nM and 45.6 nM and 32.4 nM
- Plasma concentration (Wistar Han rats, 400 mg/mL solution AA (6.25% poloxamer 188), 3.00 h, animals #1-#4): 61.1 nM and 94.5 nM and 54.3 nM
- Plasma concentration (Wistar Han rats, 400 mg/mL solution AA (6.25% poloxamer 188), 8.00 h, animals #1-#4): 102 nM and 159 nM and 119 nM
- Plasma concentration (Wistar Han rats, 400 mg/mL solution AA (6.25% poloxamer 188), 24.0 h, animals #1-#4): 163 nM and 281 nM and 228 nM
- Plasma concentration (Wistar Han rats, 400 mg/mL solution AA (6.25% poloxamer 188), 48.0 h, animals #1-#4): 174 nM and 310 nM and 246 nM
- Plasma concentration (Wistar Han rats, 400 mg/mL solution AA (6.25% poloxamer 188), 72.0 h, animals #1-#4): 144 nM and 267 nM and 265 nM
- Plasma concentration (Wistar Han rats, 400 mg/mL solution AA (6.25% poloxamer 188), 96.0 h, animals #1-#4): 130 nM and 238 nM and 226 nM
- Plasma concentration (Wistar Han rats, 400 mg/mL solution AA (6.25% poloxamer 188), 672 h, animals #1-#4): 93.1 nM and 141 nM and 105 nM
- Plasma concentration (Wistar Han rats, 400 mg/mL solution AA (6.25% poloxamer 188), 840 h, animals #1-#4): 92.9 nM and 122 nM and 87.7 nM
- Plasma concentration (Wistar Han rats, 400 mg/mL solution AA (6.25% poloxamer 188), 1008 h, animals #1-#4): 92.1 nM and 120 nM and 67.1 nM
- Plasma concentration (Wistar Han rats, 400 mg/mL solution AA (6.25% poloxamer 188), 1344 h, animals #1-#4): 79.3 nM and 88.8 nM and 47.2 nM
- Plasma concentration (Wistar Han rats, 400 mg/mL solution W (5.00% ethanol, 1.57% poloxamer 188), 24.0 h, animals #1-#3): 90.1 nM and 144 nM
- Plasma concentration (Wistar Han rats, 400 mg/mL solution W (5.00% ethanol, 1.57% poloxamer 188), 48.0 h, animals #1-#3): 127 nM and 201 nM
- Plasma concentration (Wistar Han rats, 400 mg/mL solution W (5.00% ethanol, 1.57% poloxamer 188), 72.0 h, animals #1-#3): 169 nM and 176 nM
- Plasma concentration (Wistar Han rats, 400 mg/mL solution W (5.00% ethanol, 1.57% poloxamer 188), 96.0 h, animals #1-#3): 150 nM and 164 nM
- Plasma concentration (Wistar Han rats, 400 mg/mL solution W (5.00% ethanol, 1.57% poloxamer 188), 168 h, animals #1-#3): 121 nM and 154 nM
- Plasma concentration (Wistar Han rats, 400 mg/mL solution W (5.00% ethanol, 1.57% poloxamer 188), 336 h, animals #1-#3): 166 nM and 224 nM
- Plasma concentration (Wistar Han rats, 400 mg/mL solution W (5.00% ethanol, 1.57% poloxamer 188), 504 h, animals #1-#3): 228 nM and 321 nM
- Plasma concentration (Wistar Han rats, 400 mg/mL solution W (5.00% ethanol, 1.57% poloxamer 188), 672 h, animals #1-#3): 239 nM and 328 nM
- Plasma concentration (Wistar Han rats, 400 mg/mL solution W (5.00% ethanol, 1.57% poloxamer 188), 840 h, animals #1-#3): 283 nM and 313 nM
- Plasma concentration (Wistar Han rats, 400 mg/mL solution W (5.00% ethanol, 1.57% poloxamer 188), 1008 h, animals #1-#3): 239 nM and 302 nM
- Plasma concentration (Wistar Han rats, 400 mg/mL solution W (5.00% ethanol, 1.57% poloxamer 188), 1344 h, animals #1-#3): 284 nM and 370 nM
- Plasma concentration (Wistar Han rats, 400 mg/mL solution W (5.00% ethanol, 1.57% poloxamer 188), 1680 h, animals #1-#3): 242 nM and 335 nM
- Plasma concentration (Wistar Han rats, 400 mg/mL solution W (5.00% ethanol, 1.57% poloxamer 188), 2016 h, animals #1-#3): 193 nM and 247 nM
- Plasma concentration (Wistar Han rats, 400 mg/mL solution W (5.00% ethanol, 1.57% poloxamer 188), 2352 h, animals #1-#3): 144 nM and 179 nM
- Plasma concentration (Wistar Han rats, 400 mg/mL solution W (5.00% ethanol, 1.57% poloxamer 188), 2688 h, animals #1-#3): 135 nM and 214 nM
- Plasma concentration (Wistar Han rats, 400 mg/mL solution W (5.00% ethanol, 1.57% poloxamer 188), 3024 h, animals #1-#3): 106 nM and 143 nM
- Plasma concentration (Wistar Han rats, 400 mg/mL solution W (5.00% ethanol, 1.57% poloxamer 188), 3360 h, animals #1-#3): 90.5 nM and 144 nM
- Plasma concentration (Wistar Han rats, 400 mg/mL solution W (5.00% ethanol, 1.57% poloxamer 188), 3696 h, animals #1-#3): 76.3 nM and 112 nM
SMILES: CC(C)(C#Cc1ccc(-c2ccc(Cl)c3c(NS(C)(=O)=O)nn(CC(F)(F)F)c23)c([C@H](Cc2cc(F)cc(F)c2)NC(=O)Cn2nc(C(F)(F)F)c3c2C(F)(F)[C@@H]2C[C@H]32)n1)S(C)(=O)=O [compound of Formula (Ia)]
- Plasma concentration (5376 h, individual rats, solution U, 500 mg/mL): 30.0 nM and 66.5 nM and 26.3 nM and 33.2 nM and 38.7 nM
- Plasma concentration (6048 h, individual rats, solution T, 400 mg/mL): 14.9 nM and 40.8 nM and 16.9 nM and 43.4 nM
- Plasma concentration (6048 h, individual rats, solution U, 500 mg/mL): 30.8 nM and 60.0 nM and 18.5 nM and 30.4 nM and 41.5 nM
- Plasma concentration (6720 h, individual rats, solution T, 400 mg/mL): 10.5 nM and 33.3 nM and 8.92 nM and 33.4 nM
- Plasma concentration (6720 h, individual rats, solution U, 500 mg/mL): 22.7 nM and 49.9 nM and 13.5 nM and 22.8 nM and 23.8 nM
